No constants are given. Whether binding was seen depends on the method and setting. Binding seen in cells or lysates may run through a third protein. Some entries that bind do so weakly or less than the wild type.
Experiments:
[1] = molecular target: T1, GFP-PARP2 (UniProt Q9UGN5-2 1-570); experiment: co-IP; GFP-Trap IP of PARP1-GFP or GFP-PARP2 from U2OS (FRT) WT lysate (EBC-150, 150 mM NaCl, 0.5% NP-40, Benzonase), western blot; with and without UV-C (20 J/m^2, 1 h)
T1 construct: also called PARP2-GFP; source: U2OS (FRT) WT, stably expressed (Flp-In, doxycycline-inducible), in lysate; not shown: GFP, N-terminal, kept

Protein sequences, listed by entry. Tags and fused reporters are not part of them. Lines headed by an entry give the natural chain unless they say otherwise; changes in a name come on top. Chains listed by the source or under a name are the forms on record and can include a tag or linker. Residues count along the entry.
UniProt Q9UGN5: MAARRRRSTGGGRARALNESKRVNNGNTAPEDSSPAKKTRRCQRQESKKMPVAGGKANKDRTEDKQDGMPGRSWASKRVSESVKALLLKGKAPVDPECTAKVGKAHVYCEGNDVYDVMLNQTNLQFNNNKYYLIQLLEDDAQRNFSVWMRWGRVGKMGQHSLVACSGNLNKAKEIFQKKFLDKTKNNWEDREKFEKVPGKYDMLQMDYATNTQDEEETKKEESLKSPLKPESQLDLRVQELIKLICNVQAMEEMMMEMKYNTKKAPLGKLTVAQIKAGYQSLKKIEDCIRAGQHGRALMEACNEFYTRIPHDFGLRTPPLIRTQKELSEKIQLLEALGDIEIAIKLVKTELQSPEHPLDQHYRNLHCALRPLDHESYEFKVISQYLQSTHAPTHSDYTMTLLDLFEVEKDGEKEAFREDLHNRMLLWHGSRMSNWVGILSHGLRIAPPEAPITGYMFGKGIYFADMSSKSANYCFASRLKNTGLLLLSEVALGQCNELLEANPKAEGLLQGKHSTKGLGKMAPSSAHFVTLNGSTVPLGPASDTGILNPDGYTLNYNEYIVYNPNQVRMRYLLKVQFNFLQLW
GFP-PARP2 (Q9UGN5-2, form named): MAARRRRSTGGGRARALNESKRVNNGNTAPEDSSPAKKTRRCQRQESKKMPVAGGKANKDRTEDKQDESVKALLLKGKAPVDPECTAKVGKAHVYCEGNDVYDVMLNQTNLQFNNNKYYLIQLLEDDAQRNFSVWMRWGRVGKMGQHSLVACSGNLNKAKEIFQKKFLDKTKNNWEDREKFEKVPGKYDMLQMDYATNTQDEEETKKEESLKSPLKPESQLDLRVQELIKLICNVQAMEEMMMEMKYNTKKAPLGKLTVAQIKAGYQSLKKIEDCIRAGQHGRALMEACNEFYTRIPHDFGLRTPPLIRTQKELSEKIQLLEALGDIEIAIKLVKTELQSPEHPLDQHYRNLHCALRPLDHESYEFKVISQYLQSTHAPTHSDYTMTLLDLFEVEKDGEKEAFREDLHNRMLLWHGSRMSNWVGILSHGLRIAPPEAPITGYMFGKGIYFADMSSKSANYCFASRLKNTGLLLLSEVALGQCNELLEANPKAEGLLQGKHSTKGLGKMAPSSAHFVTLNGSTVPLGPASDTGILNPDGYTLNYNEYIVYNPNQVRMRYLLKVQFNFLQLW
UniProt Q86WJ1: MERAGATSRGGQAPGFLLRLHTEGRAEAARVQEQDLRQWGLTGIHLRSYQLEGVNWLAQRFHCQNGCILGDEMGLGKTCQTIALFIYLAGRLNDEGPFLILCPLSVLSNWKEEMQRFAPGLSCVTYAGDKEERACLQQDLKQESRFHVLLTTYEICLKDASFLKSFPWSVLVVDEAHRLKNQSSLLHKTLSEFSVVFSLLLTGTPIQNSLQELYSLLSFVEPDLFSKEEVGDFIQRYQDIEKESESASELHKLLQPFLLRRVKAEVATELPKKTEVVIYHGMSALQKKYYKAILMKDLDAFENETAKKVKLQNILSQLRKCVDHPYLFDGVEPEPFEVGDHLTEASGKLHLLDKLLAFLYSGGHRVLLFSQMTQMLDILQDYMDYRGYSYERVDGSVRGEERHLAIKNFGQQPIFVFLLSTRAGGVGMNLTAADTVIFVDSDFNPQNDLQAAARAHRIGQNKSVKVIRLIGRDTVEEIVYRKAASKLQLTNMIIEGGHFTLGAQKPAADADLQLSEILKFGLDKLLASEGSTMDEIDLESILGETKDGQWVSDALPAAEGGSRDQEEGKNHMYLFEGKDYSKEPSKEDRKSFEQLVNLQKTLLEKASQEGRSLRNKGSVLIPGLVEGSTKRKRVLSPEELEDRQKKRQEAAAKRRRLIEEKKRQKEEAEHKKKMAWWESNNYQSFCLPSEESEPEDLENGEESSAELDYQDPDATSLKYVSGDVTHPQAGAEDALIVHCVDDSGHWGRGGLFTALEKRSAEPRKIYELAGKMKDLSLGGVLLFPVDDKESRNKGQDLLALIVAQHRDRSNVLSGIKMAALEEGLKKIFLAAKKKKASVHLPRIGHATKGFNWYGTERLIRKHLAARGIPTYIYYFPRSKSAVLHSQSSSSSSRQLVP
GFP-ALC1 Δmacrodomain: residues 1-726 of Q86WJ1
UniProt Q01831: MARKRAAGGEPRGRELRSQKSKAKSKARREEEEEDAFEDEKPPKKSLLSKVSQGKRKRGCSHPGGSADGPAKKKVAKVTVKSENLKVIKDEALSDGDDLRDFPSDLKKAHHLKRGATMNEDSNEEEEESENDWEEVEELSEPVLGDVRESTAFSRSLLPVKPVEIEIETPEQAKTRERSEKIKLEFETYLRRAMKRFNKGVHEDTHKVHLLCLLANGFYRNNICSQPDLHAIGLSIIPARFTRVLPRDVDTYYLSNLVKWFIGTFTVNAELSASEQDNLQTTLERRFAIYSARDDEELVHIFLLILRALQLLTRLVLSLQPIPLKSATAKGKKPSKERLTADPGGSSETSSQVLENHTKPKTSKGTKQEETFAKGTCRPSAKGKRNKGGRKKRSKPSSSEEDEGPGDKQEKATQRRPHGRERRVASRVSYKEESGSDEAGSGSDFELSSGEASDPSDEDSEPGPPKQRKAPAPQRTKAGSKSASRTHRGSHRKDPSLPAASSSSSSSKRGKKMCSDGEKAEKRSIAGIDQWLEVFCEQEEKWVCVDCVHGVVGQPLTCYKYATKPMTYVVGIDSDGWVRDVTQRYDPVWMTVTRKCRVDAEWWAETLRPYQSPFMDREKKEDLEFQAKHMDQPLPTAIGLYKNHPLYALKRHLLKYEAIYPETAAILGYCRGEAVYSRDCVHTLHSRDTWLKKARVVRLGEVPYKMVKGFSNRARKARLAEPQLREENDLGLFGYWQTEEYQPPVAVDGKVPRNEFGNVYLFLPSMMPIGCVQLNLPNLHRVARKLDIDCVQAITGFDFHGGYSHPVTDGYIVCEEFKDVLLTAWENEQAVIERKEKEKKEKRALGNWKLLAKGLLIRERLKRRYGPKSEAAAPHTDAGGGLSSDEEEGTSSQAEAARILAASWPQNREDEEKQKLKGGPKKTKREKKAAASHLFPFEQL
UniProt P09874: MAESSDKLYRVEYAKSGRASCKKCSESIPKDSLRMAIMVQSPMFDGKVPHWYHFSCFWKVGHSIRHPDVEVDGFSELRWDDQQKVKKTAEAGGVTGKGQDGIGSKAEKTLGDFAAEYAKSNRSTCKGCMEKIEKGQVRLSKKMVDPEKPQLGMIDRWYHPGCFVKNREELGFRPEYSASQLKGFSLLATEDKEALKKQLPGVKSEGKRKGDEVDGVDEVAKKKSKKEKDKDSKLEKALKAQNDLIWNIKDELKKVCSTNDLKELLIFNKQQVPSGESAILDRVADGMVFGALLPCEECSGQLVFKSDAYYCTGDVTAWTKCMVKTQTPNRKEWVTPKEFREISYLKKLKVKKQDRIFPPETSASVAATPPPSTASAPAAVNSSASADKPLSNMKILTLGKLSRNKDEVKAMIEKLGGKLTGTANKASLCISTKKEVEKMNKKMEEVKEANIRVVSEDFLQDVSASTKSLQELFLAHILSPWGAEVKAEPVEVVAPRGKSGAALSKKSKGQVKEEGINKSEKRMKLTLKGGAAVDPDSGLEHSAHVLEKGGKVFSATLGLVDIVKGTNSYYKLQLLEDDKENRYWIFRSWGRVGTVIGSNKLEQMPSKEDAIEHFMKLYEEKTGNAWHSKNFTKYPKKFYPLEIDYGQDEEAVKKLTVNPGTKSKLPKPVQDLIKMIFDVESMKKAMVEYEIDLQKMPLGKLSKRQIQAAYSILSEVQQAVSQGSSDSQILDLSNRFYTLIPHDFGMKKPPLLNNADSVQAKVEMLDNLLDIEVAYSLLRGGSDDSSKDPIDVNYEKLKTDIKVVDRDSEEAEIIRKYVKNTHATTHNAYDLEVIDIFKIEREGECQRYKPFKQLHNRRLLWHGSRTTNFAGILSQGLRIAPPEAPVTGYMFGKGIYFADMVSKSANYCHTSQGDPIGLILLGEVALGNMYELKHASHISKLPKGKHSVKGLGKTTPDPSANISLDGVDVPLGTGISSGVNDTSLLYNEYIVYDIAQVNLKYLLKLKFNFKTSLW

[2] = molecular target: GFP-ALC1 WT (UniProt Q86WJ1); experiment: co-IP; GFP-Trap IP of GFP-ALC1 WT, E175Q or Δmacrodomain from U2OS (FRT) ALC1-KO lysate (EBC-150, 150 mM NaCl, 0.5% NP-40, Benzonase), western blot; with and without UV-C (20 J/m^2, 1 h)
[3] = molecular target: GFP-ALC1 E175Q (UniProt Q86WJ1); experiment: as above
[4] = molecular target: GFP-ALC1 Δmacrodomain (UniProt Q86WJ1); experiment: as above
[5] = molecular target: XPC-GFP (UniProt Q01831); experiment: co-IP; GFP-Trap IP of XPC-GFP from U2OS (FRT) XPC-KO lysate (EBC-150: 50 mM Tris pH 7.5, 150 mM NaCl, 0.5% NP-40, Benzonase), western blot; with and without UV-C (20 J/m^2, 1 h) and olaparib (10 uM)

binding [1] | binding [2] | binding [3] | binding [4] | binding [5] | Substance
binds | – | – | – | – | ALC1 (endogenous) (from UniProt Q86WJ1 1-897) (enzyme)
– | binds | binds | no binding | binds | PARP1 (endogenous) (from UniProt P09874 1-1014) (enzyme)
– | binds | binds | no binding | binds | PARP2 (endogenous) (from UniProt Q9UGN5 1-583) (enzyme)
binds | – | – | – | – | XPC (endogenous) (from UniProt Q01831 1-940)
